# Source: PubChem BioAssay AID1345082 (National Center for Advancing Translational Sciences (NCATS), 2018)
# Screen size: about 94,000 compounds; about 4,000 (4.3%) were called active. This list was built around the results that the source calls inconclusive (neither active nor inactive); the mix of calls is not that of the screen. Calls follow the shape of the dose curve; as a rule, active = well fitted inhibition curve with a large enough effect; inconclusive = small, poorly fitted or top-dose-only effect; inactive = no such curve, though single readings can be large or run the other way. Potencies of inconclusive entries are doubtful fits and often do not repeat.
# Assay: Cytotoxic Profiling in NIH 3T3 Cell Line of Diverse Libraries Using Quantitative High-Throughput Screening; also: nearly all actives have a fitted effect of over 55% in size
# Conditions: NIH 3T3 viability, CellTiter-Glo ATP luminescence, 48-72 h; activity change, negative = cytotoxicity: at 96.7 µM (top of the series) unless noted; series mostly up to 96.7 µM
# Outline: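 First NIH 3T3 cells are plated at 400 cells/well; next compound is pinned in; then plates incubate 48 or 72 hr at 37 °C; finally CellTiter-Glo is added and luminescence read after 10 min.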
# % is scaled to controls: 0 for no effect and ±100 for the full control effect; potency is read from the fitted curve at half-maximal effect; tags tell the direction and shape of the fitted curve.
SMILES,Potency,"activity change, negative = cytotoxicity",outcome
O=C(CCc1c[nH]c2ccccc12)NC1CCN(c2ccc(=O)[nH]n2)CC1,"inconclusive: 35.5 µM [inhibitor, single point]",,
CCC(c1cccs1)N1C(=O)[C@H]2CN(S(=O)(=O)c3ccc(C)cc3C)C[C@H]2C1=O (stereo not given in full),"inconclusive: 50.1 µM [inhibitor, partial curve, poor fit]",,
CC(=O)N1CCN([C@H]2[C@@H]3OC[C@@H](O3)[C@@H](NCC3CCCCC3)[C@@H]2O)CC1,,inactive: 4.1% [at 174 µM],
Cc1[nH]nc(CN2CCC3(CCN(C4CCCC4)CC3)C(CO)C2)c1Cl (stereo not given),"inconclusive: 89.1 µM [inhibitor, single point]",,
COCCn1c(=O)c2c(n1Cc1ccccc1)CN(C(=O)c1ccc(Oc3ccccc3)cc1)CC2,"inconclusive: 50.1 µM [inhibitor, partial curve, poor fit]",,
CCN(Cc1c(O)cccc1OC)CC1CCN(CCc2ccccc2C)CC1,"inconclusive: 50.1 µM [inhibitor, partial curve, poor fit]",,
CC(=O)N(C1CC1)C1CCOC2(CCN(C(=O)CCc3nc4ccccc4[nH]3)CC2)C1 (stereo not given),,inactive: -21.4%,
CC(C)(C)c1nc(C(=O)N2CCN(c3ncccn3)CC2)n2ccccc12,"inconclusive: 44.7 µM [inhibitor, partial curve, poor fit]",,
CNC(=O)c1cc(C)nc2onc(C3CCN(C(=O)c4ccc(F)cc4)C3)c12 (stereo not given),,inactive: -19.8%,
CCC(=O)N(C1CCOCC1)C1CCN(S(=O)(=O)c2cccc(C)c2)CC1,,inactive: -18.8%,
CN(C)c1ccc(C(=O)N2CCC(Cc3noc(-c4ccccc4)n3)C2)cc1 (stereo not given),"inconclusive: 44.7 µM [inhibitor, partial curve, poor fit]",,
CC(=O)Nc1ccc(CN2CC(Oc3ccc(F)c(C)c3)C2)cc1,"inconclusive: 79.4 µM [inhibitor, partial curve, poor fit]",,
CCOC(=O)[C@H]1[C@@H](O)C(=O)N(Cc2ccccc2)C12CCN(C(=O)c1cc(C)oc1C)CC2,"inconclusive: 70.8 µM [inhibitor, single point]",,
O=C(NCc1ccccc1Cl)C1CCN(C(=O)c2ccc(-c3cccs3)cc2)CC1,active: 39.8 µM,,
COc1cccc(-c2ccc(C(=O)N3CCC(C(=O)N4CCN(Cc5ccccc5)CC4)CC3)cc2)c1,"inconclusive: 50.1 µM [inhibitor, partial curve, poor fit]",,
Cn1ccnc1CN1CCCC12CCN(c1ccc(C(F)(F)F)cn1)CC2,"inconclusive: 50.1 µM [inhibitor, partial curve]",,
CCCN(CC1CC1)C(=O)C1CCc2ncc(-c3ccc(F)cc3)n2C1 (stereo not given),"inconclusive: 5.01 µM [inhibitor, full curve, poor fit]",,
COC1CCN(C(=O)Cc2c[nH]c3ncc(-c4cnn(C)c4)cc23)CC1,active: 44.7 µM,,
CN(Cc1cnccn1)C(=O)c1csc2nc(-c3cccc(C(F)(F)F)c3)cn12,"inconclusive: 28.2 µM [inhibitor, partial curve, poor fit]",,
C=Cc1cccc(CN2CCC(CNS(=O)(=O)C3CC3)C2)c1 (stereo not given),,,inactive

SMILES,Potency,"activity change, negative = cytotoxicity",outcome
CC(C)CNC(=O)c1cc(-c2ccccc2F)cc2c1OCCN2Cc1cccnc1,active: 44.7 µM,,
O=C(C[C@@H]1CCNC[C@@H]1Cc1cc(CSc2ccccc2)on1)N1CCN(c2ccccc2)CC1,active: 25.1 µM,,
CCOCCn1c(=O)[nH]c2cc(C(=O)NCc3csc(CC)n3)ccc21,"inconclusive: 89.1 µM [inhibitor, single point]",,
O=C(c1ccc(F)cc1Cl)N1CCC(n2cc(-c3nc(C4CC4)no3)nn2)C1 (stereo not given),"inconclusive: 15.8 µM [inhibitor, partial curve]",,
CC(C)c1ccc(CC(=O)N2CCCc3ncc(C(=O)N4CCCC[C@@H]4c4ccccc4)cc32)cc1,"inconclusive: 44.7 µM [inhibitor, partial curve, poor fit]",,
CCCc1cc(C(=O)N(C)CCOc2ccccc2CC)n(C)n1,active: 39.8 µM,,
Cc1noc(C)c1[S+](=O)([O-])N1CCC2(CC1)CC(=O)N(c1ccccc1)c1ccccc1O2,,inactive: -16%,
FC(F)(F)c1cccc(CN2CCOC[C@H](Oc3ccccc3)C2)c1,"inconclusive: 100 µM [inhibitor, partial curve]",,
COc1cc(C)ccc1OCc1cc(C(=O)NCc2n[nH]c3c2CCC3)no1,"inconclusive: 44.7 µM [inhibitor, partial curve, poor fit]",,
O=C(c1ccc(F)cc1)N1CCC2(CCc3nn(Cc4ccccc4)c(=O)n3CC2)CC1,"inconclusive: 44.7 µM [inhibitor, partial curve, poor fit]",,
Cn1cc(S(=O)(=O)N2CCCC(C)(c3ccccc3)C2)cn1 (stereo not given),"inconclusive: 89.1 µM [inhibitor, partial curve, poor fit]",,
CCc1nc2c(c(-c3ccc(OC)cc3)n1)CN(C(=O)c1ccccc1OC)CC2,"inconclusive: 44.7 µM [inhibitor, partial curve, poor fit]",,
O=C(NCC1CCN(c2cc(-c3ccc(F)cc3)[nH]n2)CC1)c1n[nH]c2c1CCCC2,active: 35.5 µM,,
O=C(C1CC(=O)N(c2ccc(F)c(Cl)c2)C1)N1CCc2c(nc[nH]c2=O)C1 (stereo not given),,inactive: -3.32%,
c1ccc(-c2ccnc(NCCOc3cccc4cccnc34)n2)nc1,"inconclusive: 31.6 µM [inhibitor, partial curve]",,
CCS(=O)(=O)c1ncc(CN(C)Cc2ccc3nonc3c2)n1CCc1ccccc1,,inactive: -21.3%,
O=C(COc1ccc(F)cc1)N1CCC(CCOc2ccccc2F)C1 (stereo not given),"inconclusive: 50.1 µM [inhibitor, partial curve, poor fit]",,
COc1ccc(CC(=O)N2CCC3(CC2)CC(O)CCO3)cc1 (stereo not given),,inactive: -5.75%,
O=C(COc1ccc(Cl)cc1)N1CCC2(CC1)N(c1ccccc1)C(=O)CS2(=O)=O,"inconclusive: 50.1 µM [inhibitor, partial curve, poor fit]",,
Nc1ncccc1CN1CCCC12CCN(c1ccc(C(F)(F)F)cn1)CC2,"inconclusive: 56.2 µM [inhibitor, partial curve, poor fit]",,
